Among all 390,000 compounds or so, about 17,000 (4.4%) were called active. The shares of active, inactive and inconclusive entries below differ from those in the screen. Calls come from the whole dose curve; as a rule, active = well fitted inhibition curve with a large enough effect; inconclusive = small, poorly fitted or top-dose-only effect; inactive = no such curve, though single readings can be large or run the other way. Potencies of inconclusive entries are doubtful fits and often do not repeat.
target: Lysine-specific demethylase 4A (Homo sapiens) (UniProt O75164); assay: qHTS Assay for Inhibitors of JMJD2A-Tudor Domain; details: AlphaScreen JMJD2A-Tudor / H3K4me3 peptide binding; series mostly up to 114 µM; note: nearly all actives have a fitted effect of over 50% in size
Potency is the fitted concentration of half-maximal effect; tags give direction and shape of the fitted curve.

Sequence of UniProt O75164 (O75164 whole entry, looked up, the tested form may be a part): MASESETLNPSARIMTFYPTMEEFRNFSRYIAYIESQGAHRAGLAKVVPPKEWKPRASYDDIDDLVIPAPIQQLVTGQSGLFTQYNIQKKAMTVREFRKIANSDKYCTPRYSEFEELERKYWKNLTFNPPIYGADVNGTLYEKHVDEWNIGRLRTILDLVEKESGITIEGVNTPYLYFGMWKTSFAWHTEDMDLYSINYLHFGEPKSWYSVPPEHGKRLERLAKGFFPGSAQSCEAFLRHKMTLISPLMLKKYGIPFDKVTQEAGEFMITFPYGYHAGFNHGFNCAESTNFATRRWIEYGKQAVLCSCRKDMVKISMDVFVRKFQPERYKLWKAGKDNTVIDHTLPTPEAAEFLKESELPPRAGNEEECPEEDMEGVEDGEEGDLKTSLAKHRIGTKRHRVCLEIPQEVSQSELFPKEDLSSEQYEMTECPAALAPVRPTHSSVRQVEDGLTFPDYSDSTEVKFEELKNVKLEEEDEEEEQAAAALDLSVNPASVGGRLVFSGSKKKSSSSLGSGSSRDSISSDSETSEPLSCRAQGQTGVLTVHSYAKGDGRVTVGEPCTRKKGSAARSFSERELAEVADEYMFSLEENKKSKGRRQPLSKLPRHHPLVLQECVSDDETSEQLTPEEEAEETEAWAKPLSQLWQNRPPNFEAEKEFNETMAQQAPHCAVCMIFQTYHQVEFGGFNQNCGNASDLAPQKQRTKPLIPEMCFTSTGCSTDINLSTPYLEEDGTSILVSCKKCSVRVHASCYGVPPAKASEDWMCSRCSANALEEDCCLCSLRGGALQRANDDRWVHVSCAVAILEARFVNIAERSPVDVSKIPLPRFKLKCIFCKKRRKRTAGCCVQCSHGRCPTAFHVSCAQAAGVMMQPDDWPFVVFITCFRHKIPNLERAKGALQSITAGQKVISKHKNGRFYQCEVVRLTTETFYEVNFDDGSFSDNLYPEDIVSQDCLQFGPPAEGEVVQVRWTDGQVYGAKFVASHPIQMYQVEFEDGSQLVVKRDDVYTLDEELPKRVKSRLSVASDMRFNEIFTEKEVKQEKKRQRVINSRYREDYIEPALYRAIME

Structure (SMILES)	Potency
CC(=O)N1CN(Cc2ccccn2)Cc2c1sc1c2CCCC1	active: 39.8 µM
CCN(C(=O)CCc1nnc2ccc(NCc3ccco3)nn12)c1ccccc1	inconclusive: 39.8 µM [inhibitor, partial curve]
CCOC(=O)N1CCN(C(=O)c2ccc3c(c2)N(Cc2ccccc2F)C(=O)c2ccccc2S3(=O)=O)CC1	inactive
Cc1sc(NC(=O)c2ccccc2)c(C(c2ccc(Cl)cc2)N2CCN(CCO)CC2)c1C (stereo not drawn)	inconclusive: 44.7 µM [inhibitor, single point]
CC1(OC(=O)c2ccco2)C(=O)C=C2C=C(C3CC3)OC=C2C1=O (stereo not drawn)	inconclusive: 56.2 µM [inhibitor, partial curve]
Cc1cccc(C(=O)NC(=S)Nc2ccc(Cc3ccncc3)cc2)c1	inconclusive: 50.1 µM [inhibitor, partial curve]
Cc1ccc(-c2nnc(Nc3cccc(Cl)c3)c3ccccc23)cc1S(=O)(=O)N1CCN(C)CC1	inconclusive: 12.6 µM [inhibitor, partial curve]
COc1ccccc1-c1nnc(NC(=O)c2ccc3ncsc3c2)o1	inconclusive: 70.8 µM [inhibitor, single point]
Cc1ccc(Cl)cc1N1CCN(S(=O)(=O)c2cn(C)c(C)n2)CC1	active: 56.2 µM
COc1ccc(CCNC(=O)CCC(=O)Nc2ccc3nc(N4CCN(C)CC4)cc(C)c3c2)cc1OC	active: 79.4 µM
O=C(COc1ccccc1)Nc1nnc(S(=O)(=O)Nc2ccccc2)s1	inconclusive: 28.2 µM [inhibitor, partial curve, poor fit]
CCN(CC(=O)NC(=O)NCc1ccccc1)Cc1ccccc1	inactive
COc1ccc(CCN(C)CC(=O)Nc2cc(C)nc3ccccc23)cc1OC	active: 0.794 µM
N#Cc1cccc(N=c2ssnc2Cl)c1	active: 12.6 µM
Cc1ccc2nc(-c3ccc(N4C(=NC(=O)CCC(=O)O)SC5CS(=O)(=O)CC54)cc3)sc2c1 (stereo not drawn)	inconclusive: 44.7 µM [inhibitor, single point]
COc1ccc(C(=O)c2sc3nc4c(c(C(F)(F)F)c3c2N)CN(C(C)=O)CC4)cc1OC	inconclusive: 79.4 µM [inhibitor, partial curve]
CCOc1ccccc1C1C(C(=O)Nc2ccccc2)=C(C)Nc2nc(SCC(=O)c3ccc(C)cc3)nn21 (stereo not drawn)	inactive
COc1cc(C2C3=C(CC(c4ccco4)CC3=O)Nc3ccccc3N2C(C)=O)cc(OC)c1OC (stereo not drawn)	inconclusive: 89.1 µM [inhibitor, single point]
COc1ccc(N2CCN(C(=O)CCc3nnc4ccc(N5CCOCC5)nn34)CC2)cc1	inactive
COc1c(CC=C(C)C)cc(C2CC(=O)c3c(O)cc(O)cc3O2)c(CC=C(C)C)c1O (stereo not drawn)	inconclusive: 50.1 µM [inhibitor, partial curve]
COc1ccc(NC2=C(Cl)C(=O)N(c3ccccc3)C2=O)c(OC)c1	inconclusive: 14.1 µM [inhibitor, partial curve]
Cc1ccc(NC(=O)Cc2nn(C)c(=O)c3ccccc23)cc1F	active: 35.5 µM
O=C(CN1CCOCC1)N1CCc2ccccc2C(c2ccccc2)C1 (stereo not drawn)	inactive

Structure (SMILES)	Potency
COc1ccc(C2Nc3cccc(OC)c3C(=O)N2Cc2ccccc2)cc1COc1ccc(NC(C)=O)cc1 (stereo not drawn)	active: 56.2 µM
CCOC(=O)c1c(C)n(-c2ccc(C)cc2)c2ccc(OCC(O)CNCC3CCCO3)cc12 (stereo not drawn)	active: 12.6 µM
Cc1cc(NS(=O)(=O)c2ccc(N3C(=O)C4C5C=CC(C5)C4C3=O)cc2)nc(C)n1 (stereo not drawn)	inconclusive: 100 µM [inhibitor, single point]
CCC(=O)OC1=C(C(C)=O)N(Cc2ccccc2)S(=O)(=O)c2ccccc21	active: 50.1 µM
O=C(N/N=C/c1ccc(N2CCOCC2)s1)c1ccccc1Cl	inconclusive: 10 µM [inhibitor, partial curve]
Cc1ccc(Cl)cc1N1CCN(C(=O)CCS(=O)(=O)c2cc(Br)cc3c2N(C(=O)C2CC2)CC3)CC1	inactive
O=C1CCC(C(=O)OCC(=O)N2N=C3/C(=C/c4ccccc4)CCCC3C2c2ccccc2)N1 (stereo not drawn)	inconclusive: 44.7 µM [inhibitor, partial curve]
COc1cc(CN2CCNC(=O)C2CC(=O)N(C)Cc2cccnc2)cc(OC)c1 (stereo not drawn)	inconclusive: 15.8 µM [inhibitor, full curve]
CCOc1ccccc1N1CCN(S(=O)(=O)c2cccc3nsnc23)CC1	inconclusive: 56.2 µM [inhibitor, partial curve]
C/C(=N\NC(=O)c1cccs1)C(C)(C)C	inconclusive: 35.5 µM [inhibitor, single point]
COc1ccccc1/C=C/c1nc(C#N)c(NC2CCCCC2)o1	inactive
Cc1ccc2nc(NC(=O)COC(=O)c3ccc(Br)o3)sc2c1	active: 44.7 µM
COc1cccc(OCc2cc(/C=N/Nc3ccc(C(=O)O)cc3)ccc2OC)c1	active: 56.2 µM
CCCCNc1c(-c2ccc(OC)c(SC(C)CC)c2)nc2cc(C)ccn12 (stereo not drawn)	inconclusive: 56.2 µM [inhibitor, partial curve]
COc1ccc(N=Nc2nc3ccc(Br)cc3n2C)cc1	inconclusive: 12.6 µM [inhibitor, partial curve]
O=C(c1ccc(Oc2ccc(C(F)(F)F)cn2)cc1)N1CCN(c2ccccc2)CC1	inconclusive: 56.2 µM [inhibitor, partial curve, poor fit]
COCCCNC(=S)N1CCCN(c2nc3cc(C)c(C)cc3cc2C#N)CC1	inactive
COc1ccc(C(=O)NCCn2cc(SCc3ccc(C(F)(F)F)cc3)c3ccccc32)cc1OC	inactive
CCc1ccc2c(c1)cc(C)c1nnc(SCC(=O)Nc3cc(OC)c(OC)cc3C(=O)O)n12	inconclusive: 39.8 µM [inhibitor, single point]
Cc1nn(-c2ccccc2)c(N)c1N=Nc1cccnc1	inconclusive: 31.6 µM [inhibitor, partial curve]
O=c1[nH]c2ccc(Cl)cc2c(-c2ccccc2)c1SC(=S)N1CCOCC1	inconclusive: 56.2 µM [inhibitor, partial curve]
COCCn1c(C)cc(C(=O)COC(=O)/C=C/c2ccc(OC)cc2OC)c1C	inconclusive: 56.2 µM [inhibitor, partial curve, poor fit]
COc1ccc(N2CCN(C(=O)C3CCCN(c4ncnc5c4nc4n5CCCCC4)C3)CC2)cc1 (stereo not drawn)	inconclusive: 44.7 µM [inhibitor, partial curve]

Structure (SMILES)	Potency
CCCCC(=O)Nc1ccc(N2CCCC2)cc1	inconclusive: 56.2 µM [inhibitor, partial curve]
COc1ccnc(CSC(N)=Nc2ccc(F)cc2)c1	active: 22.4 µM
CCSc1ccc(-c2cccc([N+](=O)[O-])c2)nn1	inactive
Cc1cc(/C=C(/C#N)c2nc3ccccc3[nH]2)c(C)n1-c1cccc([N+](=O)[O-])c1	active: 89.1 µM
CCOC(=O)Oc1c(OC)cc(C(=O)O[C@@H]2C[C@@H]3CN4CCc5c([nH]c6cc(OC)ccc56)[C@H]4C[C@@H]3[C@H](C(=O)OC)[C@H]2OC)cc1OC	inconclusive: 10 µM [inhibitor, full curve]
Cc1ccc(-c2n[nH]c(=S)nc2-c2ccc(C)cc2)cc1	inconclusive: 56.2 µM [inhibitor, partial curve]
O=C(NCC(c1cccs1)N1CCOCC1)c1ccc(Br)o1 (stereo not drawn)	inconclusive: 79.4 µM [inhibitor, partial curve]
COCCCNC(=O)c1cccn2c(=O)c3cc4ccccc4cc3nc12	inconclusive: 20 µM [inhibitor, full curve, poor fit]
COc1ccccc1NC(=O)Nc1nc(CC(=O)N2CCN(c3ccccc3OC)CC2)cs1	inconclusive: 28.2 µM [inhibitor, full curve]
COc1ccc(N2CCN(S(=O)(=O)c3ccc4c(c3)C(C(C)C)C(=O)N4)CC2)cc1 (stereo not drawn)	inconclusive: 63.1 µM [inhibitor, partial curve]
O=C1CSC(c2cn(-c3ccccc3)nc2-c2ccccc2)N1Cc1ccco1 (stereo not drawn)	inconclusive: 56.2 µM [inhibitor, partial curve]
O=C(Nc1ccc(-c2ccco2)cc1)C1CCCN(Cc2ccc(CO)o2)C1 (stereo not drawn)	inconclusive: 50.1 µM [inhibitor, partial curve]
Cc1ccc(C)c(-n2[nH]c3c4c(ccc3c2=O)C(=O)c2ccccc2C4=O)c1	inconclusive: 22.4 µM [inhibitor, full curve]
CCOc1ccc(OCC(=O)Nc2ccc(S(=O)(=O)Nc3cc(C)on3)cc2)cc1	inactive
N#Cc1nc(-c2cccc3ccccc23)oc1NCCN1CCCCC1	inconclusive: 50.1 µM [inhibitor, partial curve]
Cc1ccc(C)c(N2CCN(C(=O)c3cc(C)nc4c3c(C)nn4-c3ccccc3)CC2)c1	inactive
CCn1c(=O)cc(OCC(=O)NC(C)c2ccc3c(c2)OCCO3)c2ccccc21 (stereo not drawn)	inconclusive: 39.8 µM [inhibitor, single point]
O=C(NNc1c2ccccc2nc2ccccc12)c1ccccc1O	inconclusive: 2.51 µM [inhibitor, full curve]
Cc1ccc(S(=O)(=O)N(C)C)cc1NC(=O)COC(=O)C1CCCC1	active: 20 µM
NC(=O)c1cc(S(=O)(=O)N2CCOCC2)ccc1Sc1ccccc1N	inactive
COc1ccc(CCNCC(=O)Nc2ccccc2C(F)(F)F)cc1	active: 3.16 µM
CCn1c(/N=C/c2c[nH]c3ccccc23)nc2ccccc21	inconclusive: 50.1 µM [inhibitor, partial curve]
